Source: PubChem BioAssay AID1466 (National Center for Advancing Translational Sciences (NCATS), 2008)
About 10 (0.005%) of roughly 200,000 compounds were called active. The shares of active, inactive and inconclusive entries below differ from those in the screen. The call rests on the fitted dose curve; in most records, active means well fitted inhibition curve with a large enough effect; inconclusive means small, poorly fitted or top-dose-only effect, or effect the other way, or another doubt; inactive means no such curve, though single readings can be large or run the other way. Potencies beside an inconclusive call are fits to weak or partial responses and may not hold up.

Biological target: Lysosomal alpha-glucosidase (Homo sapiens) (UniProt P10253)
Assay: qHTS Assay for Inhibitors of Human alpha-Glucosidase as a Potential Chaperone Treatment of Pompe Disease;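 on activity change, negative = inhibition: plate controls were uninhibited enzyme wells for no effect and no-enzyme background for full effect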
Conditions: purified human GAA, 4-MU-alpha-glucoside fluorescence; activity change, negative = inhibition: at 76.9 µM (top of the series) unless noted
Procedure, shortened: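 Compounds are titrated up to 77 uM against 4 nM human enzyme. Substrate 4-methylumbelliferyl-alpha-D-pyranoside (400 uM) reacts 20 min at room temperature in pH 5.0 buffer; liberated 4-methylumbelliferone is read at 440 nm.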
Potency means the concentration at half of the fitted maximal effect; tags describe the fitted curve by direction and shape.

Potency, inconclusive:
CCN(CC)S(=O)(=O)c1cccc(-c2cn3cccnc3n2)c1 17.8 µM [activator, partial curve, poor fit]
COc1cc(/C=C2\SC(=S)N(CC(=O)NC(C)(C)C)C2=O)cc(OC)c1OC 39.8 µM [inhibitor, single point]
CC1=C(C(=O)Nc2cc(C)ccn2)C(c2cnn(C)c2)C2=C(CC(c3ccccc3)CC2=O)N1 (stereo not given) 28.2 µM [activator, single point]
O=C(Nc1ccc(-c2nc3ncccc3o2)cc1)c1ccco1 7.08 µM [inhibitor, single point]
CCc1ccc(S(=O)(=O)c2nnn3c2nc(NCCNC(C)=O)c2ccccc23)cc1 31.6 µM [activator, partial curve]
CCOC(=O)c1ccc(NC(=O)CSc2n[nH]c(-c3ccncc3)n2)cc1 3.55 µM [inhibitor, partial curve]
CCC1CCCCN1Cc1nc2c(c(=O)n(C)c(=O)n2C)n1CCC(C)C (stereo not given) 50.1 µM [inhibitor, single point]
CCOC(=O)N1CCN(C(=O)c2ccc3c(=O)n(Cc4ccccc4)c(=S)[nH]c3c2)CC1 14.1 µM [inhibitor, partial curve, poor fit]
COc1ccc(CCn2c(N)cc(=O)[nH]c2=S)cc1OC 44.7 µM [activator, single point]
CC12CC(NC(=O)N1c1cccc(C(=O)N3CCN(c4ccccc4F)CC3)c1)c1ccccc1O2 (stereo not given) 7.08 µM [inhibitor, full curve, poor fit]
Cc1cccc(C)c1NC(=O)C1(N2CCN(C(=O)c3ccco3)CC2)CCCCC1 3.16 µM [inhibitor, partial curve]
COc1ccccc1NC(=O)C1=C(C)N(c2ccccc2)C(=S)NC1c1cccc(C(F)(F)F)c1 (stereo not given) 7.94 µM [inhibitor, full curve]
CCCCC1C(C#N)=C(C)NC2=C1C(=O)CC(C)(C)C2 (stereo not given) 50.1 µM [activator, single point]
CCOc1cc(S(=O)(=O)Nc2cc(C)cc(C)c2)ccc1Cl 28.2 µM [inhibitor, partial curve]
CCOC(=O)C1=C(C)NC2=C(C(=O)CCC2)C1c1cccnc1 (stereo not given) 39.8 µM [activator, single point]
C=CCNCCCOc1ccc(C(C)(C)c2ccccc2)cc1 31.6 µM [inhibitor, single point]
CCN(C(=O)CN1CCN(c2ccc(OC)cc2)CC1)c1c(N)n(Cc2ccccc2)c(=O)[nH]c1=O 1 µM [inhibitor, full curve]
O=C(c1ccccc1)N1CCN(c2ncnc3sc4c(c23)CCC4)CC1 0.794 µM [inhibitor, full curve, poor fit]
CCc1ccccc1NC(=O)CSC1=C(C#N)C(c2ccc3c(c2)OCO3)C2=C(CCCC2=O)N1 (stereo not given) 50.1 µM [inhibitor, single point]
COC(=O)c1ccc(COc2ccccc2/C=N/NS(=O)(=O)c2ccccc2)cc1 50.1 µM [inhibitor, single point]
COc1ccc(CCNC(=O)COC(=O)c2cnc(C)cn2)cc1OC 11.2 µM [inhibitor, single point]
COc1cc(OC)c(NC(=O)c2ccc(Br)o2)cc1Cl 50.1 µM [inhibitor, partial curve, poor fit]
Cc1c(C)c2cc(Cl)c(O)c(CN(C)C)c2oc1=O 39.8 µM [activator, partial curve]
CCOc1ccc(N2C(=O)/C(=C\c3ccc(OC)c(O)c3)S(=O)(=O)C2c2cccc([N+](=O)[O-])c2)cc1 (stereo not given) 31.6 µM [inhibitor, partial curve, poor fit]
CCOc1ccc2nc(N3CCC(C(=O)N4CCN(c5ccccn5)CC4)CC3)sc2c1 39.8 µM [inhibitor, single point]
CSCCC(NC(C)=O)C(=O)Oc1ccc2c3c(c(=O)oc2c1)CCCC3 (stereo not given) 35.5 µM [activator, partial curve]
N#CCCNc1ccc(OCCC#N)cc1 56.2 µM [inhibitor, single point]
C/C(=N\NC(=O)C(C)Oc1ccc([N+](=O)[O-])cc1)c1ccccn1 (stereo not given) 44.7 µM [inhibitor, single point]

Activity change, negative = inhibition, inconclusive:
CSc1nsc(N/N=C/c2ccccc2)c1C#N -16.2% [inhibitor]
C=CCN(C(=O)c1csnn1)C(C(=O)NC(C)(C)C)c1ccncc1 (stereo not given) 17% [activator]
CC(C)(C)c1cc(=O)n2[nH]c(N)nc2n1 12.3% [activator]
Cc1ccc(CN2CCN(Cc3ccc(OC(C)C)cc3)CC2CCO)o1 (stereo not given) 15.8% [activator]
COc1ccc(-c2nnc3n2N=C(C)CS3)cc1 -20.7% [inhibitor]
Cc1ccc(CSCC(Nc2ccc(C(=O)O)cc2[N+](=O)[O-])C(=O)O)cc1 (stereo not given) -16.5% [inhibitor]
Cn1c(=O)c(C(=O)COC(=O)c2cc(C(F)(F)F)nc3ccccc23)c(N)n(Cc2ccccc2)c1=O 20.2% [activator] [at 15.4 µM]
COc1ccc(Cn2c(=S)[nH]c3cc(C(=O)NCc4cccnc4)ccc3c2=O)cc1 -16% [inhibitor]
CCN1CCCC1CNC(=O)C(=O)NC(C)C (stereo not given) 17.5% [activator]

Activity change, negative = inhibition, inactive:
CN(C)c1ccc(/C=C/C(=O)c2ccc(O)cc2)cc1[N+](=O)[O-] -8.53%
CN(CCC1CCOCC1)Cc1cn[nH]c1-c1ccc(-c2ccccc2)cc1 -10.9%
Cc1cccc(NCc2nc3ccccc3n2Cc2ccccc2)c1 -11.3%
